# In the supplement of paper PMC12632987:
# Whole data set: some 4,500 sequences, median “median log2 fold change of GCK-ALFA target abundance (FLAG IP / Myc IP barcode read proportion)” near 0.078, cut for the lowest 2% near -0.6. Some of the results follow.
# B1: GBRAP_74_6504 (protein)
# chain: SAEVKALIAELEAAAAEGASVEELEALAERVIALGDQEAAGALVKAIAAAMERAGREERRRLAEIFERLIHETDIDFSTPETGDAVKRAATLALELEKEE
# B2: GBRAP_35_5603 (protein)
# chain: ETDEEVVEWVADTVEDLVLAADDMDDETFAATAITIARATKEVIEKEKTDLEGLKRLAEELKRLLEALEKRGLDTPLMREAAAAVREALKAAEAAIKEAE
# B3: GBRAP_137_3616 (protein)
# chain: KKVTITFSEEDGTAYAEIKADKSVDQEKLEKLIEEVAEEHGVKLVKALSEDPNDIEYYLVGDPEKIVAAVKSLIKRLKEELGAEVVLESDGAEELVEKVK
# B4: GBRAP_11_2919 (protein)
# chain: KKEEKEKMAKLAEEAAELVEELIEEGVDNKELQKELEKKLKELEELVKKYGDEADKKDVEIAKELWKEAQADPENRLEYLKQLRAALRVLAGRYLLELEE
# B5: GBRAP_128_3238 (protein)
# chain: PDPAVEAEADALIETIVTGTPEEAAAATAALVALMATVDLETAERFAERLKAALEKLTAEKLDVVADALRANRGRLDPEKATLAADVEIEALNLAEEKEE
# B6: GBRAP_35_5548 (protein)
# chain: DSDEETAEMLVDTIEDIVEALPDVSEEDRVALAEAALRLARDLVELQPKNKELIKRAIEALERIKEIIEESDLPEEVRERLVREIEELIEELKKILEENE
# B7: GBRAP_52_5920 (protein)
# chain: SSEKAKKIAEEILEAALAGKEEELKKLIEELVKNYSLEEIKEVIRELARIIAELGPEHYDLFAEIMDLLLDAAEKAGRDVEEVDAAIAEAAGLLYQAEQA
# B8: GBRAP_83_6981 (protein)
# chain: AEHIVVAGNSDNIEEAAEIAIDLHEEEGYEVDIELIIKKEDKEKLLKELKKVFEKGVETDILILGEGMTEEEAEELEKELKEIAKEYGVNVNIEVELLPP
# B9: GBRAP_83_6950 (protein)
# chain: KEKLVVAANGDHVEEAVKIAADLAKTGKYEVTLEVITDVESAKVLIEEVGKALKAGVKFELEVLLEGATEEEAEEVLKEFKKVAKEAGADIPVEVHVLEP
# B10: GBRAP_57_6449 (protein)
# chain: EERLKKIREAAKKTIELLKSKAPDEEIRKAISEFMDLLSDEVVDLVAAYLDPEAAEGLDREELKKLAVEKLLEVAKTKGPEEAIKIIETALAQEELLAEE
# B11: GBRAP_80_6852 (protein)
# chain: AEAALAAALAALAAVLPEAAETAKRIVELALELGVPKEVITDTLNALTELAKVDPELAKELLKELLADLEELAAEGDSEGATAVLRGYAGEALLEAEELE
# B12: GBRAP_160_4033 (protein)
# chain: SEKYEKLKEFAKEEFKEAKEMVEGQTAEQRAAIVDTAAGRIIMEAEELGIDDDELLDKIDKLADEAVAYILANPDLTEEEVKKLIEKMEKEVLEAIEKAE
# B13: GBRAP_39_5708 (protein)
# chain: DEKEELELLASYYEAVAAKEQVDSGISLEEFLAKKREEIKKAAEEDPENKAVYERLLKLMDEGDDVDKLIAAGIAKALKAGMPVEEAEAILKQVEEERKK
# B14: GBRAP_128_3222 (protein)
# chain: MAEEAEKKVRELLEKIKKADEEERKKLAKELAELVASQDVETAEAMRKVIEELAPELSEEDLEILMDAFEEAARATDDEISLVLTEAAIIMGQRILELEE
# B15: GBRAP_128_3174 (protein)
# chain: SIEEVREYTRKKMEEIKNSSPEEARKIATELFTWLLTLSLEEAEAAVEVILEELPKLSAEKLQIIADVAREYRPKASPEKAELIAEVEVEALNLELELEE
# B16: GBRAP_139_3740 (protein)
# chain: MPAEEIVAEAAAKARELKDDPDALADYLVERIKAVDEETAAAIVAAAMEALADLPVDKILEIVDKVLERLEEAGVSEDKRDAAEAELNGGLARHAAAEEA
# B17: GBRAP_184_5200 (protein)
# chain: KVLEVEVTVENLEETKEKMEEILKKAKEEKADLLLIVKLKKSTKEIIETIMEALGKIKKEGYAKNVTVELEGDLSDENIDLAFELADKAGVNLVIALPES
# B18: GBRAP_128_3564 (protein)
# chain: STEALVARARALLAAIKAAGPEEARALARELADLIAAADPAAREAIVETILELLPELTPEQLDILADVFRERRATADPATAEALAEIEVEALNEREEKEE
# B19: GBRAP_52_6073 (protein)
# chain: MEEKIEKLAEEITEAIKAGDDEKALELLEKAVKELSEEEIKKLLVLTAKKVAKLNEEEHERFVDILDEFEDILIENGISEEDALLIVGDALAALAKEVAK
# B20: GBRAP_186_5367 (protein)
# chain: SEEVEKKIEEIIDEAAKKGWLILGVLEVKELTEESLERIKNELEAGAEFSAEFGYKVKIIIKTTVSEEDFEKLKKEVEEYKEKLEKETGAELEVEIIHEE
# B21: GBRAP_125_3100 (protein)
# chain: HMEELLEDLKRIALALGFSEEEAEELARLAREGSLKQTLVALFLAEGAEEVADLVAKLTEEQAAEAVRRLAAWLDAHPDATKEEVIAKAKEIAEELLAKA
# B22: GBRAP_184_5110 (protein)
# chain: KVLEEEIEAENVEELREKLTEAVERAVAEKADLLVIVKIPNLTPEMARVIMEEVHRAKEAGIKNVLVLIESDNLSDEVIDTIDELARKYGITNLVLAMKE
# B23: GBRAP_53_6396 (protein)
# chain: AEKEIKEGLKELEALIKRVKADPTLDPKEVAKEASALFKALVAAGAPEEELVKLAKELAEAVKAKGLGVEVSTALAKAAAEAGAEEVQYVFTEAAVEDLE
# B24: GBRAP_95_7038 (protein)
# chain: DDDVLLAESLAEVLETAVDLGDEEAARRAALELLKALLELPKDAVKLSLSPEAVRLIIEVARENLPREEAIEALEKLAAALTDPESKALAQAALEELKAE
# B25: GBRAP_128_3303 (protein)
# chain: MAPEVRARARELVERIRTGDAEERRAAAEELAALFRAASLEEVEEIAEIVRAALPELSKEALLILAEVLDAALPQFSPEKRAVVADVASDALLEAEELEE
# B26: GBRAP_80_6860 (protein)
# chain: DEARLAAARARLKALLPEAAALIDEVVAIAKELGVPNADIADLLDALAELAEVDPELAKELLEELLEDLREEKEAGDAENALATVRGYAGEALMEAEELE
# B27: GBRAP_160_4511 (protein)
# chain: SETLEELFEEVEEAREEILEVIEEENVEEAIVTAAVEWGEVIMYMAELESVSDEAEDAAAKIRDELVAELKANADAPVEELKKIVEEHAERLKEELKELF
# B28: GBRAP_78_6743 (protein)
# chain: KAEEVIDETIETLNEALKALSSKPIEEVGDAMLHLLDASEALIEAEEEGFPLEYIEEAARHLAAAIAEIEAKGIELPAEIMAALKASLEALKALAAEKKA
# B29: GBRAP_128_3335 (protein)
# chain: MDEERVEEIKELAEKIIEADPEEARELAEEIAERLKELSLEEVKKAVEYILELLPKLSAEHLEILADVLEEKLPEFDPESANEVADLQVEALNLAVEKEE
# Target: GABARAP, O95166
# Sequence (O95166 whole entry, the tested form may be a part): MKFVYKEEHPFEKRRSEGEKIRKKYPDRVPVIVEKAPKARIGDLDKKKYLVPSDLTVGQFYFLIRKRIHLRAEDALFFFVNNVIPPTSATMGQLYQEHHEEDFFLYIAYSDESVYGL
# Experiment: median log2 fold change of GCK-ALFA target abundance (FLAG IP / Myc IP barcode read proportion) (log2 ratio); each designed protein is fused to an ALFA-tag nanobody in HEK293 cells to bring the named protein to FLAG-tagged glucokinase (GCK); Myc marks an untargeted standard; higher = target protein stabilised (more abundant)
# Settings: target protein: 3xFLAG-MCP-GCK-ALFA reporter; HEK293 landing pad (RPLP)
# Outline: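 Binders fused to an ALFA nanobody were recombined as a library into HEK293 landing-pad cells, which were induced with 2 μg mL^−1 doxycycline and then transfected to express a FLAG-tagged target and a Myc-tagged standard. After 48 h, circular RNA barcodes recovered by anti-FLAG and anti-Myc immunoprecipitation of lysates were reverse transcribed, amplified and sequenced. Each binder's target abundance is the median log2 ratio of FLAG to Myc barcode read proportions, from barcodes present at ≥10^−7 in both replicates, binders carrying ≥3 barcodes per replicate, a 10^−6 pseudocount and pooled replicates.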
row,Binder,median log2 fold change
1,B1,0.146
2,B2,0.253
3,B3,-0.197
4,B4,0.396
5,B5,0.255
6,B6,-0.485
7,B7,0.0721
8,B8,0.0819
9,B9,-0.0309
10,B10,0.302
11,B11,-0.0831
12,B12,-0.0731
13,B13,0.309
14,B14,0.00949
15,B15,0.161
16,B16,0.166
17,B17,0.142
18,B18,0.19
19,B19,-0.605
20,B20,0.118
21,B21,0.195
22,B22,0.199
23,B23,0.274
24,B24,0.19
25,B25,0.201
26,B26,-0.593
27,B27,-0.0636
28,B28,-0.0804
29,B29,-0.092
